Data reported in the supplement of paper PMC9446081.
Screen size: about 39,000 compounds; about 220 (0.56%) showed activity. Some of the results follow.

Each compound was assayed on Escherichia coli K-12 BW25113 (assay: relative growth (OD600 normalised to plate interquartile mean) (fraction); higher = less growth inhibition, active = 0.2 or less). Settings: 50 µM; LB; incubation time: overnight (16-24 h).
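Further: static incubation at 37 °C against the wild-type strain, values averaged over two biological replicates.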

Compound	relative growth
C[C@@H]1CCCCO[C@H](CN(C)S(=O)(=O)c2cccs2)[C@H](C)CN([C@@H](C)CO)C(=O)c2cc(NC(=O)C3CCCCC3)ccc2O1	inactive: 1.01
COc1ccc(CN(C)C[C@H]2OCCCC[C@@H](C)Oc3ccc(NC(=O)c4ccccc4)cc3C(=O)N([C@H](C)CO)C[C@@H]2C)cc1	inactive: 1.03
CO[C@@H]1CN(C)C(=O)c2cc(NS(=O)(=O)CC(F)(F)F)ccc2OC[C@H](C)N(C(=O)c2ccc3c(c2)OCO3)C[C@@H]1C	inactive: 0.99
O=C(C1=C[C@H](c2ccc3c(c2)OCO3)C[C@H](OCCCCO)O1)N1CCN(Cc2ccc3c(c2)OCO3)CC1	inactive: 1
CCCNC(=O)N[C@@H]1CC[C@H](CC(=O)N2CCN(C)CC2)O[C@@H]1CO	inactive: 0.983
COc1ccccc1C#Cc1ccc2c(c1)O[C@@H](CN(C)C(C)=O)[C@H](C)CN([C@H](C)CO)S2(=O)=O	inactive: 1.01
CC(C)NC(=O)N(C)C[C@@H]1Oc2c(NC(=O)C3CCOCC3)cccc2C(=O)N([C@H](C)CO)C[C@H]1C	inactive: 0.996
C[C@H]1CN([C@@H](C)CO)C(=O)Cc2cc(N(C)C)ccc2O[C@@H]1CN(C)S(=O)(=O)c1cn(C)cn1	inactive: 0.969
CN(C)Cc1cn(CC[C@H]2CC[C@@H](N)[C@H](CO)O2)nn1	inactive: 0.998
CN1CCN(C(=O)C[C@@H]2CC[C@H](NC(=O)c3ccc4c(c3)OCO4)[C@@H](CO)O2)CC1	inactive: 0.981
Cc1noc(C)c1NC(=O)Nc1ccc2c(c1)CC(=O)N([C@H](C)CO)C[C@@H](C)[C@H](CN(C)S(=O)(=O)c1ccccc1)O2	inactive: 0.999
C[C@@H]1CN([C@H](C)CO)C(=O)c2c(c3ccccc3n2C)-c2ccccc2CO[C@@H]1CN(C)C(=O)N[C@H](C)c1ccccc1	inactive: 1.01
C[C@@H]1CN([C@@H](C)CO)S(=O)(=O)c2ccc(C#CC3(O)CCCC3)cc2O[C@H]1CN(C)C(=O)c1ccccc1	inactive: 1
COc1ccc(CN(C)C[C@H]2OCCCC[C@@H](C)Oc3ccc(NC(=O)CCC(F)(F)F)cc3C(=O)N([C@H](C)CO)C[C@@H]2C)cc1	inactive: 1.01
O=C(C[C@H]1CC[C@@H]2[C@H](COC[C@H](O)CN2C(=O)Nc2ccc3c(c2)OCO3)O1)N1CCN(c2ccccc2)CC1	inactive: 0.988
C[C@@H]1CN([C@@H](C)CO)C(=O)Cc2cc(NC(=O)CCC(F)(F)F)ccc2O[C@H]1CN(C)Cc1ccc(C(=O)Nc2ccccc2N)cc1	inactive: 0.997
CCN(CC)C(=O)c1ccc[n+](CC(N)=O)c1	inactive: 1
C[C@@H]1CN([C@@H](C)CO)C(=O)c2cccc(NC(=O)c3ccc(-c4nccs4)cc3)c2O[C@@H]1CN(C)Cc1ccc(C(=O)O)cc1	inactive: 1.02
C[C@@H]1CCCCO[C@H](CN(C)C(=O)c2ccccc2)[C@@H](C)CN([C@H](C)CO)C(=O)c2cc(NC(=O)Nc3ccc4c(c3)OCO4)ccc2O1	inactive: 0.986
C[C@H]1CN([C@@H](C)CO)C(=O)c2cc(NS(=O)(=O)c3ccccc3)ccc2O[C@H]1CN(C)S(=O)(=O)c1ccccc1	inactive: 1.03
C[C@@H]1CCCCO[C@@H](CN(C)Cc2ccncc2)[C@H](C)CN([C@@H](C)CO)C(=O)c2cc(NC(=O)NC3CCCCC3)ccc2O1	inactive: 1.03

Compound	relative growth
Cc1noc(C)c1NC(=O)N(C)C[C@H]1OCCCC[C@@H](C)Oc2ccc(NC(=O)C3CCCCC3)cc2C(=O)N([C@H](C)CO)C[C@@H]1C	inactive: 0.982
COc1ccc(NC(=O)N(C)C[C@@H]2OCCCC[C@@H](C)Oc3ccc(NS(=O)(=O)c4ccc(Cl)cc4)cc3C(=O)N([C@H](C)CO)C[C@H]2C)cc1	inactive: 1.02
C[C@@H]1CN([C@@H](C)CO)C(=O)c2cc(NC(=O)C3CCCCC3)ccc2O[C@@H](C)CCCCO[C@@H]1CN(C)S(=O)(=O)c1ccc(Cl)cc1	inactive: 1.02
CC(=O)N1CCN(CC(=O)NS(=O)(=O)c2ccccc2)CC1	inactive: 0.989
CC[C@@H](C)n1ncn(-c2ccc(N3CCN(c4ccc(OC[C@H]5CO[C@](Cn6cncn6)(c6ccc(Cl)cc6Cl)O5)cc4)CC3)cc2)c1=O	inactive: 0.999
C[C@@H]1CCCCO[C@@H](CN(C)C(=O)Nc2ccccc2)[C@H](C)CN([C@H](C)CO)C(=O)c2cc(NC(=O)Nc3ccccc3)ccc2O1	inactive: 0.99
CN1CCN(C(=O)C[C@@H]2CC[C@H]3[C@@H](COC[C@@H](O)CN3C(=O)C3CC3)O2)CC1	inactive: 1.01
CC(C)C[C@@H]1NC(=O)[C@@H]2C[C@H](C(=O)NCCCCCNC(=O)CS)[C@H](c3cccc(OCCO)c3)N2C1=O	inactive: 1
CCCCCCCCCCCCCCCC(=O)OCC(NC(=O)C(Cl)Cl)C(O)c1ccc([N+](=O)[O-])cc1 (stereo unspecified)	inactive: 0.559
C#CCCCCCCCCCCCC(O)CC(O)COC(C)=O.C=CCCCCCCCCCCCC(O)CC(O)COC(C)=O (stereo unspecified)	inactive: 1.03
O=C(O)c1cnn2c1CCCC2	inactive: 0.987
COc1ccc2c3c(n(c2c1)C)[C@@H](CO)N(C[C@]13CN(C1)C(=O)Cc1ccccc1)C(=O)c1ccccn1	inactive: 0.996
Cc1nnc(SCC2=C(C(=O)O)N3C(=O)[C@@H](N)[C@H]3SC2)s1	inactive: 1
C[C@@H]1CN([C@@H](C)CO)C(=O)c2cccc(NS(=O)(=O)c3ccc(F)cc3)c2O[C@@H]1CN(C)S(=O)(=O)c1ccc(F)cc1	inactive: 1.02
C[C@@H]1CCCCO[C@@H](CN(C)Cc2ccc(C(F)(F)F)cc2)[C@@H](C)CN([C@H](C)CO)C(=O)c2cc(NC(=O)Nc3ccc(C(F)(F)F)cc3)ccc2O1	inactive: 1.01
C[C@@H]1CN([C@@H](C)CO)S(=O)(=O)c2ccc(Br)cc2O[C@H]1CN(C)S(=O)(=O)c1ccccc1	inactive: 0.935
C[C@@H]1CN([C@@H](C)CO)C(=O)Cc2cc(NC(=O)Cc3cn(C)c4ccccc34)ccc2O[C@@H]1CN(C)Cc1ccc(Cl)c(Cl)c1	inactive: 0.998
C[C@@H]1CN([C@@H](C)CO)C(=O)c2cc(NC(=O)Nc3ccccc3)ccc2O[C@@H]1CN(C)Cc1ccc(-c2ccccc2)cc1	inactive: 1.02
O=C(C[C@@H]1CC=CCC[C@@H](Cc2ccc(F)cc2)C(=O)OCCNC1=O)N[C@@H](CO)Cc1ccccc1	inactive: 0.999
C[C@@H]1CN([C@H](C)CO)C(=O)c2cc(NC(=O)C3CCCCC3)ccc2O[C@@H]1CN(C)Cc1ccc(C(=O)Nc2ccccc2N)cc1	inactive: 0.984
Cc1cc(C)n2nc(CCCO)nc2n1	inactive: 0.97

Compound	relative growth
C[C@@H]1CCCCO[C@H](CN(C)S(=O)(=O)c2ccccc2)[C@@H](C)CN([C@H](C)CO)C(=O)c2cc(NC(=O)C3CCCCC3)ccc2O1	inactive: 1.03
COc1ccc(NC(=O)N(C)C[C@H]2OCCCC[C@H](C)Oc3ccc(NC(=O)c4ccncc4)cc3C(=O)N([C@@H](C)CO)C[C@@H]2C)cc1	inactive: 0.978
C=CCOC(=O)[C@H]1[C@@H]2C(=O)O[C@@H](c3ccccc3)[C@@H](c3ccccc3)N2[C@@H](c2ccc(OCCOC(=O)[C@@H]3C[C@@H]4C(=O)N[C@@H](CC(C)C)C(=O)N4[C@@H]3c3cccc(OCCO)c3)cc2)[C@]12C(=O)Nc1ccc(I)cc12	inactive: 1.05
NC(=S)c1cnc(-c2ccncc2)nc1N	inactive: 0.953
C[C@@H]1CN([C@@H](C)CO)C(=O)c2cc(NS(=O)(=O)c3cn(C)cn3)ccc2O[C@@H](C)CCCCO[C@@H]1CN(C)Cc1ccc(C(F)(F)F)cc1	inactive: 1
C[C@@H]1CN([C@H](C)CO)C(=O)c2cccc(NC(=O)Nc3ccc4c(c3)OCO4)c2O[C@H]1CN(C)Cc1ccc(-c2ccccc2)cc1	inactive: 0.967
COc1ccc(NC(=O)N(C)C[C@@H]2Oc3ccc(NC(=O)Nc4ccc(C(F)(F)F)cc4)cc3CC(=O)N([C@@H](C)CO)C[C@H]2C)cc1	inactive: 1.03
CN(C)CCC(=O)N1CCNCC1	inactive: 1.04
C[C@H]1CN([C@@H](C)CO)C(=O)Cc2cc(NS(C)(=O)=O)ccc2O[C@H]1CN(C)C(=O)NC1CCCCC1	inactive: 0.979
COc1ccc([Si](C)(C)[C@H]2[C@H](CC(=O)N(CCO)Cc3ccccc3)O[C@@]3(C(=O)N(Cc4cccc(N5C(=O)c6cccc7cccc5c67)c4)c4ccccc43)[C@@H]2C)cc1	inactive: 1.03
O=C(O)c1cnns1	inactive: 1.01
CCCCCCO[C@@H](C)c1cccc(-c2csc(NC(=O)c3cc(Cl)c(/C=C(\C)C(=O)O)c(Cl)c3)n2)c1OC	inactive: 0.777
O=[N+]([O-])c1ccc2nc(CO)[nH]c2c1	inactive: 0.985
CC(C)(C)OC(=O)Nc1cccc([C@@H]2CC(=O)N(C(=O)OCc3ccccc3)[C@@H]2C(=O)Nc2cccc3cccnc23)c1	inactive: 0.996
CNC[C@@H]1Oc2ccc(NC(=O)CCN3CCOCC3)cc2CC(=O)N([C@@H](C)CO)C[C@@H]1C	inactive: 1.03
C=CCN1C(C)=N[C@H]2C=C[C@H](NCCCO)[C@H]21	inactive: 0.999
COc1ccc(S(=O)(=O)Nc2cccc3c2O[C@H](CN(C)C(=O)Nc2c(C)noc2C)[C@@H](C)CN([C@H](C)CO)C3=O)cc1	inactive: 1.03
O=c1[nH]cn[nH]1	inactive: 0.986
COc1cc(/C=C/c2cc(/C=C/c3ccc(O)c(OC)c3)n(CCc3ccccc3)c(=S)n2)ccc1O	inactive: 1.08
